Our source for the binding values is PMC6928942.

Protein sequences, listed by entry. Tags and fused reporters are not part of them. Lines headed by an entry give the natural chain unless they say otherwise; changes in a name come on top. Chains listed by the source or under a name are the forms on record and can include a tag or linker.
UniProt P0CX25: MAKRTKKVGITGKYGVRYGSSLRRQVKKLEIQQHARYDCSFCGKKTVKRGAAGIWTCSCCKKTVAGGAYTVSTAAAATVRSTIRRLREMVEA
rpl43BΔM-HA (P0CX25, form named): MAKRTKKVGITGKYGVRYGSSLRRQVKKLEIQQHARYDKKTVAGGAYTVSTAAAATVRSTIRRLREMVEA
UniProt Q12522: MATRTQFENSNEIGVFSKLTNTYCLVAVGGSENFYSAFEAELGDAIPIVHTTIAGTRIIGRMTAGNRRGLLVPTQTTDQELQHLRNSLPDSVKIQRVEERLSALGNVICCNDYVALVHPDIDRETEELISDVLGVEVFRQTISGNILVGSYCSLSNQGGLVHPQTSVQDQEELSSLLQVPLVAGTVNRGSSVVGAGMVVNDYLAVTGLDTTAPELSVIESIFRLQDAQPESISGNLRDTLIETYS

Results are given in words; binding and its absence hold for the method and conditions named. Binding seen in cells or lysates may run through a third protein. Some results given as binding are weak or reduced against the parent protein; the word gives no strength. For some assays here: Sequences can lack the tags named with a protein.

The target of test [1] is T1, MBP-Kap121 (S. cerevisiae) (UniProt P32337).
T1 sequence: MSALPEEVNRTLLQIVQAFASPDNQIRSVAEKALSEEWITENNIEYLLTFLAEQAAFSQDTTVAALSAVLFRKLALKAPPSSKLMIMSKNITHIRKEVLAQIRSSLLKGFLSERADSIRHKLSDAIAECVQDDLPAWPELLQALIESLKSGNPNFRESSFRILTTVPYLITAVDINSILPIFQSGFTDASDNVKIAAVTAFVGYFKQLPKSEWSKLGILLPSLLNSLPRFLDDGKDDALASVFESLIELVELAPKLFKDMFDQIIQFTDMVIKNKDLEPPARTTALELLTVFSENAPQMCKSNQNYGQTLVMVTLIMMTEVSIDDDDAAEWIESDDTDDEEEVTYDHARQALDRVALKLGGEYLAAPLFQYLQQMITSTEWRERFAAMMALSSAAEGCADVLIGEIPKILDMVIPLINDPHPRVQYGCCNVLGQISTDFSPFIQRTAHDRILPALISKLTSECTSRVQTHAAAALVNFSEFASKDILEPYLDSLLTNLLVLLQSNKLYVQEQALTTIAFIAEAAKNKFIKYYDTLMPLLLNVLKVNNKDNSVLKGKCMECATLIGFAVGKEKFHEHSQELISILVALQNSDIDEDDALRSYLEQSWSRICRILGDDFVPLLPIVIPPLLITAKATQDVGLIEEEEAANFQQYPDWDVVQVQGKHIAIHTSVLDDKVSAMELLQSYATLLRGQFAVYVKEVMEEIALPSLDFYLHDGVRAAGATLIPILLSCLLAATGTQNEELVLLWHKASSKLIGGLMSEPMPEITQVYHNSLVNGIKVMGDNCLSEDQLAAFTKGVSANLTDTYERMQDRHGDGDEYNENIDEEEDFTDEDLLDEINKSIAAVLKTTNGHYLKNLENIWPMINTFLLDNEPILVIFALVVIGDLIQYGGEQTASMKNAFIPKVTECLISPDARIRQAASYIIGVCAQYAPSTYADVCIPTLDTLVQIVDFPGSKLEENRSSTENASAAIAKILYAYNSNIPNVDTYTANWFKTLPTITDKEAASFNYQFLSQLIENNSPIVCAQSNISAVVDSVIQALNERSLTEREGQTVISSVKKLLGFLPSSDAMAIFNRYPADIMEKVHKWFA
Nature of the test: pull-down; MBP-Kap121 immobilized on amylose resins; recombinant GST-Rpl43 variants, Puf6-His6 and Loc1-His6 added separately or in combination; only the target purified.

For the next test, the target named is T2, Noc4-TAP (S. cerevisiae) (UniProt Q06512).
T2 sequence: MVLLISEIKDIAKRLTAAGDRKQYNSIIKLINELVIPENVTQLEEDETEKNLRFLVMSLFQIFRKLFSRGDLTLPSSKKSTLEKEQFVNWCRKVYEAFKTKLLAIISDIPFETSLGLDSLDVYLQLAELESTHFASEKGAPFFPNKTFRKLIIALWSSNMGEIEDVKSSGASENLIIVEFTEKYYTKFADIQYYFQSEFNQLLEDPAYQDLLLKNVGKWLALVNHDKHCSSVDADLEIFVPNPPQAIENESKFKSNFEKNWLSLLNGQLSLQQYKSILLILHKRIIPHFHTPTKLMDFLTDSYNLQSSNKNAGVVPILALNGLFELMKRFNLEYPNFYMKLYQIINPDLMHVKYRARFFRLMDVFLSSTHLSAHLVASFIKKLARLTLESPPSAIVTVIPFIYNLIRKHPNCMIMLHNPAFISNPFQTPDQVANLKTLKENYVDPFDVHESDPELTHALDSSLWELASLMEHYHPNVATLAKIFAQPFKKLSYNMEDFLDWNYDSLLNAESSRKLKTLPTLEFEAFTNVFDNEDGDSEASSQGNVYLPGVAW
Nature of the test: co-IP; TAP-tagged transacting factors immunoprecipitated from yeast lysate to purify pre-90S and pre-60S particles at different stages; Puf6, Loc1 and Rpl43 detected by Western blotting.

In another test the target is T3, Arx1-TAP (S. cerevisiae) (UniProt Q03862).
T3 sequence: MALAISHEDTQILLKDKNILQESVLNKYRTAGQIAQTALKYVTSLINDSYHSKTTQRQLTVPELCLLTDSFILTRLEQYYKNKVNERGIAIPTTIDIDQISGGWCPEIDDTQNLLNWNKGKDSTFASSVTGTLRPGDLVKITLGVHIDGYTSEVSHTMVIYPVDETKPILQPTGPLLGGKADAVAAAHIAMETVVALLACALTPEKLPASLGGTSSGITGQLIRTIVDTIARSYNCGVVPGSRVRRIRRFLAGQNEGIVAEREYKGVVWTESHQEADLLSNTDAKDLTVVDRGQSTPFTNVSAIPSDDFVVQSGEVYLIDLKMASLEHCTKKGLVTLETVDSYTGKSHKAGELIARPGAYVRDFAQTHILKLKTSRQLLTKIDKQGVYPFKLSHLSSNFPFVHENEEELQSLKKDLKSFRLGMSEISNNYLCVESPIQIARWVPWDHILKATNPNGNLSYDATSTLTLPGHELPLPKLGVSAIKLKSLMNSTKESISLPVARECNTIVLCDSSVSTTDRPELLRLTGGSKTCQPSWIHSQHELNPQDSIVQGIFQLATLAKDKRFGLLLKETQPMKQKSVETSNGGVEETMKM
The description is as above.

The target in the next test is T4, Rei1-TAP (S. cerevisiae) (UniProt P38344).
T4 sequence: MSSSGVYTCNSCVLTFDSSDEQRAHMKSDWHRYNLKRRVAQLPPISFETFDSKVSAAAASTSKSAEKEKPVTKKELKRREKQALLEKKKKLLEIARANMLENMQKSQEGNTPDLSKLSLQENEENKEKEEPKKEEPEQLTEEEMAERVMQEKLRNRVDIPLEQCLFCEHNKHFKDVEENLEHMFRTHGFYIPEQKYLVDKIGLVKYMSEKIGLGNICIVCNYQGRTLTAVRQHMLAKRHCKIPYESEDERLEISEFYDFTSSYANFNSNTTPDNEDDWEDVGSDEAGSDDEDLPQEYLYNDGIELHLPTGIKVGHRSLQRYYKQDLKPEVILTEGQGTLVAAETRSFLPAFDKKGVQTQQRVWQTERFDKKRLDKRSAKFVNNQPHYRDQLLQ
The test is described as above.

In test [2] the target is T5, Nop56-TAP (S. cerevisiae) (UniProt Q12460).
T5 sequence: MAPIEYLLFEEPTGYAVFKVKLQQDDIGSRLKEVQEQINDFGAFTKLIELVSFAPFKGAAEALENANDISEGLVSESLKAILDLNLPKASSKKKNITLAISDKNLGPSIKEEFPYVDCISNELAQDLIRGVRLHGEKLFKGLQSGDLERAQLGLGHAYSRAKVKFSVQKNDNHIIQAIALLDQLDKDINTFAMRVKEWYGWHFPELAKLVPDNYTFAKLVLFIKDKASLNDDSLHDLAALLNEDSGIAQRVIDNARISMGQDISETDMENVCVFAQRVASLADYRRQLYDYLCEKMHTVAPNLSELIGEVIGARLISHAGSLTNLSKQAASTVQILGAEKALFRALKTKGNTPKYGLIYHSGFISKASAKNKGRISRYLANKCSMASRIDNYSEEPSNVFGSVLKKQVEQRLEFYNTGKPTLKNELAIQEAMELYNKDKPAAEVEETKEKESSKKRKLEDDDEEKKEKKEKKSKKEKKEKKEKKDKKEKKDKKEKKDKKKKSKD
The test is described as above.

The target of test [3] is GST-Rpl43ΔN (S. cerevisiae) (UniProt P0CX25). Put plainly: pull-down; GST fusion from E. coli whole-cell extract bound to glutathione beads 1 h 4 °C and washed; E. coli extract with the prey added 1 h 4 °C; TEN100 buffer (20 mM Tris pH 7.4, 0.1 mM EDTA, 100 mM NaCl); Coomassie stain and Western blotting; only the target purified. (In general: In western blotting, separated proteins are transferred to a membrane and probed.)

For test [4], the target named is GST-Rpl43ΔNH (S. cerevisiae) (UniProt P0CX25). The test is described as above.
The target of test [5] is GST-Rpl43ΔC (S. cerevisiae) (UniProt P0CX25). Described as above.
The target of test [6] is GST-Rpl43 (S. cerevisiae) (UniProt P0CX25). Described as above.
Another test deals with Tif6-TAP (S. cerevisiae) (UniProt Q12522). Put plainly: co-IP; Tif6-TAP immunoprecipitated from yeast; Puf6 mutants examined.
In a further test the target is Puf6-myc (S. cerevisiae) (UniProt Q04373). Put plainly: co-IP; anti-c-myc antibody (9E10) and protein-A agarose beads on yeast extract, 4 °C, IP buffer (20 mM Tris pH 7.5, 50 mM NaCl, 6 mM MgCl2, 10% glycerol); Western blotting.
Another test concerns the target T6, Brx1-TAP (S. cerevisiae) (UniProt Q08235).
T6 sequence: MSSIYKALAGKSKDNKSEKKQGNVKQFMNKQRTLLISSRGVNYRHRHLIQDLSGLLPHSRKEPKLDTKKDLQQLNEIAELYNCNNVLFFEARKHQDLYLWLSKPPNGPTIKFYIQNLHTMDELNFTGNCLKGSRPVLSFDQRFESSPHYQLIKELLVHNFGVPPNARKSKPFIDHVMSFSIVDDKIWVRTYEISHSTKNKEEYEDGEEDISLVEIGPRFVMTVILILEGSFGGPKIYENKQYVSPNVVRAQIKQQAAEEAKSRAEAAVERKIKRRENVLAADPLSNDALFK
Nature of the test: co-IP; Brx1-TAP immunoprecipitated from yeast to purify pre-60S; Rpl43 mutants detected by blot.

Regarding GST-Rpl43 (from UniProt P0CX25 1-92), the binding result in test [1] is “binds”.

On to “GST-Rpl43ΔC (from UniProt P0CX25 1-73) (domain or fragment)”, for which the binding entry in test [1] is “binds”.

“GST-Rpl43ΔN (from UniProt P0CX25 22-92) (domain or fragment)”: in test [1], the binding result is “binds”.

For “GST-Rpl43ΔNH (from UniProt P0CX25 35-92) (domain or fragment)”, the binding entry in test [1] is on record as “no binding”.

As to Puf6 (from UniProt Q04373 1-656), the binding entry in the test with Noc4-TAP (S. cerevisiae) is reported as “binds”; in the test with Arx1-TAP (S. cerevisiae), “no binding”; in the test with Rei1-TAP (S. cerevisiae), “no binding”; in test [2], “binds”.

As to Puf6-His6 (from UniProt Q04373 1-656), the binding result is reported as “no binding” in test [3]; “no binding” in [4]; “binds” in [5]; “binds” in test [6]; “binds” in [1].

Puf6-myc (from UniProt Q04373 1-656): the binding entry in the test with Tif6-TAP (S. cerevisiae) was “binds”.

For “Ribosomal protein large subunit 43 (Rpl43) (from UniProt P0CX25 1-92)”, the binding entry (with Noc4-TAP (S. cerevisiae); in test [2]) was “binds” in each case.

For the substance Rpl43B-HA (from UniProt P0CX25 1-92), the binding entry in the test with Puf6-myc (S. cerevisiae) is “binds”.

As for “rpl43BΔC-HA (from UniProt P0CX25 1-73) (domain or fragment)”, the binding result with Brx1-TAP (S. cerevisiae) is reported as “no binding”.

Take rpl43BΔM-HA (from UniProt P0CX25 1-92): the binding entry with Brx1-TAP (S. cerevisiae) is listed as “binds”.

Take “rpl43BΔN-HA (from UniProt P0CX25 22-92) (domain or fragment)”: in the test with Brx1-TAP (S. cerevisiae), the binding result is given as “binds”.
